# From PubChem BioAssay AID624418 (National Center for Advancing Translational Sciences (NCATS), 2012)
# About 530 (0.13%) of roughly 410,000 compounds were called active. Inconclusive means that the source gave no clear call. Such entries were picked first, then a sample of the others. Calls come from the whole dose curve; as a rule, active = well fitted inhibition curve with a large enough effect; inconclusive = small, poorly fitted or top-dose-only effect, or another doubt; inactive = no such curve, though single readings can be large or run the other way. Potencies beside an inconclusive call are fits to weak or partial responses and may not hold up.
# Test: qHTS of GLP-1 Receptor Inverse Agonists: Cytotox Screen
# Settings: HEK293 cAMP-luciferase reporter cells, luminescence, 24 h; series mostly up to 38.3 µM
# In short: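 To flag toxic compounds, the library was rerun on cells for 24 hr at 37 deg C and 5% CO2. Viability-linked luminescence was captured 12 min after adding luciferase detection reagent.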
# Potency is the fitted concentration of half-maximal effect.
row,Compound,Potency
1,CC(C)c1ccc(N(CCc2ccccn2)C(=O)C(C)(C)C)cc1,"inconclusive: 2.51 µM [inhibitor, partial curve, poor fit]"
2,O=C(NCCCN1CCOCC1)c1cc2c([nH]c3ccccc32)c(-c2cccc(Br)c2)n1,"inconclusive: 28.2 µM [inhibitor, single point]"
3,O=C(Nc1ccccc1C(=O)O)c1ccc(NC(=O)c2ccc(Br)o2)cc1,inactive
4,CN(CC(=O)Nc1ccc(Cl)cc1)CC(=O)Nc1sc2c(c1C(N)=O)CCC2,inactive
5,CC(=O)c1ccc(N2CCN(C(=O)c3cc(S(=O)(=O)N4CCCCCC4)cn3C)CC2)cc1,inactive
6,COc1ccc(CCNc2nc(C)nc3c2oc2ccccc23)cc1OC,"inconclusive: 31.6 µM [inhibitor, single point]"
7,Clc1ccc(SCCOCCN2CCc3ccccc3C2)cc1,inactive
8,Cc1ccc(N=Cc2ccc(O)cc2O)cc1F,"inconclusive: 8.91 µM [inhibitor, partial curve, poor fit]"
9,Cc1cccc(C(=O)Oc2ccc(/C=N/NC(=O)c3ccc(O)cc3)cc2)c1,"inconclusive: 2.24 µM [inhibitor, full curve]"
10,Cc1ccc(CNC(=O)C2CC3Cn4c(nc5cc(C)c(C)cc54)C3N2C)o1 (configuration not stated),inactive
11,COC(=O)c1ccc(C23CC4(C2)[C@H](CN(Cc2ccc(C(F)(F)F)cc2)[C@@H]4c2ccccc2)C3c2ccccc2)cc1 (some centres not stated),inactive
12,CC1CCN(C(=O)c2ccc3c(c2NCCO)C(=O)c2ccccc2C3=O)CC1,"inconclusive: 10 µM [inhibitor, partial curve]"
13,N=c1sccn1CC(=O)Nc1cc(Cl)ccc1Oc1ccccc1,"inconclusive: 11.2 µM [inhibitor, partial curve, poor fit]"
14,CC1(C)CN(c2ccccc2)N(C(=O)c2ccc(F)cc2)C1=O,inactive
15,O=C(CCl)N(Cc1ccccc1)c1ccccc1,"inconclusive: 28.2 µM [inhibitor, partial curve, poor fit]"
16,c1ccc(-c2nc3c(ccc4ccccc43)[nH]2)nc1,"inconclusive: 3.16 µM [inhibitor, full curve, poor fit]"
17,Cc1csc2sc(-c3ccnc(SCC(=O)NCc4ccccc4)n3)c(C)c12,"inconclusive: 28.2 µM [inhibitor, partial curve, poor fit]"
18,CCc1ccc2[nH]c(=O)c(CN(Cc3ccccc3OC)Cc3nnnn3Cc3ccco3)cc2c1,"inconclusive: 6.31 µM [inhibitor, partial curve, poor fit]"
19,N#C/C(=C\c1cccn1-c1ccccc1)C(=O)NC1CCCCC1,"inconclusive: 3.98 µM [inhibitor, partial curve]"
20,CCCSc1ncc(Cl)c(C(=O)Nc2sc(C(C)=O)c(C)c2C(=O)OCC)n1,inactive
21,CCOc1cccc(C(=O)Nc2nc(-c3ccc(S(=O)(=O)N4CCOCC4)cc3)cs2)c1,"inconclusive: 7.94 µM [inhibitor, partial curve, poor fit]"
22,CCOc1ccc(NC(=S)Nc2ccccc2C2(C)CC2)cc1,"inconclusive: 28.2 µM [inhibitor, single point]"
23,Cc1ccc(-n2nc3c(N4CCC(C(=O)NCc5ccccc5C)CC4)nnc(C)c3c2C)cc1,"inconclusive: 11.2 µM [inhibitor, single point]"

row,Compound,Potency
1,N#C/C(=N\Nc1ccc(S(=O)(=O)N2CCCCC2)cc1)C(N)=S,"inconclusive: 11.2 µM [inhibitor, single point]"
2,COc1cccc(C2CCCN2Cc2nc(-c3sccc3C)oc2C)c1 (configuration not stated),"inconclusive: 28.2 µM [inhibitor, single point]"
3,CC(=O)Nc1ccc(NC(=O)c2cc(CN3CCCC3)on2)cc1,inactive
4,CC1CCC/C=C/C(=O)c2c(O)cc(O)cc2CC(=O)O1 (configuration not stated),"inconclusive: 8.91 µM [inhibitor, partial curve]"
5,O=C(Nc1nccs1)c1ccccn1,"inconclusive: 15.8 µM [inhibitor, single point]"
6,CN(C)P(=O)(Nc1cccc2ccccc12)Nc1cccc2ccccc12,"inconclusive: 31.6 µM [inhibitor, single point]"
7,C=CCn1c(SCC(=O)NCC2CCCO2)nc2sc(CC)cc2c1=O (configuration not stated),inactive
8,O=S(=O)(Nc1cccc(S(=O)(=O)N2CCCCCC2)c1)c1ccccc1,inactive
9,O=[N+]([O-])c1cccc(S(=O)(=O)Nc2nc3ccccc3nc2Nc2cccc(S(=O)(=O)N3CCCCC3)c2)c1,"inconclusive: 5.62 µM [inhibitor, full curve, poor fit]"
10,CCn1ncc(/C=N\NC(=O)c2ccc3c(c2)c(C)c(C)n3Cc2ccccc2)c1C,"inconclusive: 28.2 µM [inhibitor, single point]"
11,Cc1cccc(NNC(=O)C(=O)NNc2cccc(C)c2)c1,inactive
12,NC(=S)N/N=C/c1ccc(-c2cc(Cl)ccc2Cl)o1,"inconclusive: 2 µM [inhibitor, full curve, poor fit]"
13,CCNC(=S)N/N=C(\C)c1ccc2c(c1)OCCO2,"inconclusive: 25.1 µM [inhibitor, single point]"
14,COc1ccc(CNC(=O)Cn2ncc3c(=O)oc4ccccc4c32)c(OC)c1,inactive
15,CCN(CC)c1ccc(/C=N/NC(=S)NC)c(O)c1,"inconclusive: 0.501 µM [inhibitor, full curve, poor fit]"
16,COc1ccc(NC(=S)NC(=O)/C=C/c2ccco2)cc1,"inconclusive: 28.2 µM [inhibitor, single point]"
17,COc1cccc(C2C(C(=O)c3cccs3)=C(O)C(=O)N2CCN2CCOCC2)c1OC (configuration not stated),inactive
18,CCOCCCNC(=O)C(NC(=O)C1CCC(C)CC1)C(C)C (configuration not stated),inactive
19,COc1ccc(OCC(=O)N2c3ccccc3CCc3ccccc32)cc1,"inconclusive: 28.2 µM [inhibitor, single point]"
20,CSC1(SC2=NCCN2)SC2(NCCN2)S1,"inconclusive: 20 µM [inhibitor, single point]"
21,COc1ccc(S(=O)(=O)Nc2ccccc2-c2nc3ccccc3[nH]c2=O)cc1,"inconclusive: 28.2 µM [inhibitor, single point]"
22,CCC(C)c1ccc(O)c(NC(=S)NC(=O)c2cccnc2)c1 (configuration not stated),"inconclusive: 10 µM [inhibitor, partial curve, poor fit]"
23,CCN(CC)c1ccc(/C=C/c2ccc3ccc(OC)cc3[n+]2CC)cc1,"inconclusive: 8.91 µM [inhibitor, partial curve, poor fit]"

row,Compound,Potency
1,O=C(C[C@H]1C/C=C\C[C@H](NC(=O)OCC2c3ccccc3-c3ccccc32)C(=O)O[C@H](c2ccccc2)CNC1=O)N[C@H](CO)Cc1ccccc1,"inconclusive: 3.16 µM [inhibitor, partial curve, poor fit]"
2,CN(C)c1ccc(C(=S)N2CCN(Cc3ccccc3)CC2)cc1,inactive
3,CCC(=O)Nc1cccc(C2=NOC3(C2)C[C@@H](C(N)=O)N(C(=O)CC(c2ccccc2)c2ccccc2)C3)c1 (some centres not stated),"inconclusive: 0.501 µM [inhibitor, full curve, poor fit]"
4,O=C(CNc1cccc2ccccc12)N/N=C/C(Br)=C/c1ccccc1,"inconclusive: 3.55 µM [inhibitor, partial curve]"
5,COc1ccc(CNC(=O)CCS(=O)(=O)c2ccc3c(c2)NC(=O)CS3)cc1,inactive
6,CCCNC(=O)NC(=O)COC(=O)c1ccc(S(=O)(=O)N(C)c2ccccc2OC)cc1,"inconclusive: 11.2 µM [inhibitor, single point]"
7,O=C(NC1CCCCC1)c1ccc2c(c1)N(Cc1ccccc1F)C(=O)c1ccccc1S2,inactive
8,Nc1nc(COc2ccc3ccccc3c2)cs1,inactive
9,CNc1cc(N2CCCCCC2)ccc1[N+](=O)[O-],"inconclusive: 28.2 µM [inhibitor, single point]"
10,N#C/C(=C\c1ccc(OCc2cccc(C(=O)O)c2)cc1)C(=O)NCc1ccco1,inactive
11,Cc1ccc2nc(-c3ccc(NC(=O)C(C)Sc4nncs4)cc3)sc2c1 (configuration not stated),"inconclusive: 31.6 µM [inhibitor, single point]"
12,CCN(CC)CC(O)CN(c1ccccc1)S(=O)(=O)c1ccc2ccccc2c1 (configuration not stated),"inconclusive: 28.2 µM [inhibitor, single point]"
13,C(#CCN1CCCC1)CC(c1ccccc1)c1ccccc1,"inconclusive: 28.2 µM [inhibitor, single point]"
14,CC(C)(C)c1ccc(/C=N/NC(=O)Cc2c[nH]c3ccccc23)cc1,"inconclusive: 11.2 µM [inhibitor, partial curve]"
15,COc1ccc(NC(=S)Nc2cc(-c3ccccc3)[nH]n2)cc1Cl,"inconclusive: 11.2 µM [inhibitor, single point]"
16,Cc1ccc(-c2nnc(Nc3ccc(OC(F)(F)Cl)cc3)c3ccccc23)cc1S(=O)(=O)NC(C)(C)CO,inactive
17,COC(=O)c1ccc(C2c3[nH]c4ccccc4c3C[C@H]3C(=O)N(C4CCN(Cc5ccccc5)CC4)CC(=O)N23)cc1 (some centres not stated),inactive
18,Cc1cccc(NC(=O)CN2CCN(CC(=O)Nc3cccc(C)c3)CC2)c1,"inconclusive: 0.501 µM [inhibitor, full curve, poor fit]"
19,Nc1ccc(NC(=O)c2cccc(C(=O)Nc3ccc(N)cc3Cl)c2)c(Cl)c1,"inconclusive: 1 µM [inhibitor, full curve, poor fit]"
20,COC(=O)c1ccc(NS(=O)(=O)NC(=O)c2c[nH]c3ccccc23)cc1,"inconclusive: 28.2 µM [inhibitor, single point]"
21,Cn1nc(-c2ccccn2)nc2c(=O)n(C)c(=O)nc1-2,"inconclusive: 4.47 µM [inhibitor, full curve]"
